Where “and” joins values, the source holds several entries; their conditions need not be identical. Identical values can stand only once. The source gives many values for each of these; only a part stands here.
Assays:
[1] = xn = mol fraction of the nth substance listed

CS(C)=O + CC#N
[1]
Details	viscosity [mPa·s]
298.15 K, 101 kPa, x2 = 0.9771	0.3517
303.15 K, 101 kPa, x2 = 0.9771	0.3363
303.15 K, 101.33 kPa, x2 = 0.0948	1.554
303.15 K, 101.33 kPa, x2 = 0.2036	1.308
303.15 K, 101.33 kPa, x2 = 0.2949	1.124
303.15 K, 101.33 kPa, x2 = 0.4	0.9332
303.15 K, 101.33 kPa, x2 = 0.4976	0.7778
303.15 K, 101.33 kPa, x2 = 0.5977	0.6451
303.15 K, 101.33 kPa, x2 = 0.6957	0.5361
303.15 K, 101.33 kPa, x2 = 0.7957	0.4469
303.15 K, 101.33 kPa, x2 = 0.8967	0.3757
308.15 K, 101 kPa, x2 = 0.9771	0.3194
313.15 K, 101 kPa, x2 = 0.9502	0.3119
313.15 K, 101 kPa, x2 = 0.9771	0.305
318.15 K, 101 kPa, x2 = 0.9502	0.2967
318.15 K, 101 kPa, x2 = 0.9771	0.2927

CS(C)=O + OCCO
[1], 323.15 K, 101 kPa
Details	viscosity [mPa·s]
x2 = 0.3504	3.57
x2 = 0.404	3.94
x2 = 0.4562	4.32
x2 = 0.5076	4.64
x2 = 0.5568	4.92
x2 = 0.6061	5.19
x2 = 0.6537	5.42
x2 = 0.7004	5.62
x2 = 0.7461	5.81
x2 = 0.7906	5.98
x2 = 0.8342	6.15
x2 = 0.8769	6.32
x2 = 0.9189	6.48
x2 = 0.9599	6.64

CCCCN(CCCC)CCCC + CCCO
[1], 313.15 K, 101.3 kPa
Details	viscosity [mPa·s]
x1 = 0.5176	1.203
x1 = 0.616	1.153
x1 = 0.7064	1.12
x1 = 0.8055	1.081
x1 = 0.8864	1.046

CCO
Details	viscosity
293.15 K, 101.33 kPa	1 mPa·s
294 K, 101 kPa	1.214 mPa·s
298.15 K, 101.33 kPa	1.007 mPa·s
303 K, 101 kPa	0.983 mPa·s
303.15 K, 100 kPa	0.975 mPa·s and 0.9905 mPa·s and 0.988 mPa·s
303.15 K, 101.3 kPa	0.9892 mPa·s
303.16 K, 101.33 kPa	0.9933 mPa·s
303.2 K, 101.33 kPa	0.974 mPa·s
308 K, 101.33 kPa	0.95 mPa·s
308.15 K, 100 kPa	0.93 mPa·s and 0.9318 mPa·s and 0.9 mPa·s
308.15 K, 101.3 kPa	0.893 mPa·s and 0.893 mPa·s
308.15 K, 101.31 kPa	0.9 mPa·s
311 K, 101.3 kPa	0.8481 mPa·s
311.79 K, 100 kPa	0.87 mPa·s
312.09 K, 100 kPa	0.87 mPa·s
312.39 K, 100 kPa	0.86 mPa·s
313 K, 101.33 kPa	0.8352 mPa·s and 0.89 mPa·s
313.15 K, 100 kPa	0.815 mPa·s and 0.83 mPa·s
313.15 K, 101.2 kPa	0.8591 mPa·s
313.15 K, 101.3 kPa	0.814 mPa·s and 0.83 mPa·s
313.18 K, 101.33 kPa	0.8305 mPa·s
313.61 K, 100 kPa	0.85 mPa·s
313.91 K, 100 kPa	0.84 mPa·s
314.21 K, 100 kPa	0.84 mPa·s
314.52 K, 100 kPa	0.83 mPa·s
314.82 K, 100 kPa	0.83 mPa·s
315.12 K, 100 kPa	0.82 mPa·s
315.42 K, 100 kPa	0.82 mPa·s
315.73 K, 100 kPa	0.81 mPa·s
316.03 K, 100 kPa	0.81 mPa·s
316.33 K, 100 kPa	0.8 mPa·s
316.64 K, 100 kPa	0.8 mPa·s
316.94 K, 100 kPa	0.8 mPa·s
317.24 K, 100 kPa	0.79 mPa·s
317.55 K, 100 kPa	0.79 mPa·s
317.85 K, 100 kPa	0.78 mPa·s
318.15 K, 101.3 kPa	0.72 mPa·s and 0.72 mPa·s
318.15 K, 101.33 kPa	0.757 mPa·s and 0.768 mPa·s
318.76 K, 100 kPa	0.77 mPa·s
319 K, 101.3 kPa	0.7348 mPa·s
319.06 K, 100 kPa	0.77 mPa·s
319.36 K, 100 kPa	0.76 mPa·s
319.67 K, 100 kPa	0.76 mPa·s
319.97 K, 100 kPa	0.75 mPa·s
320.27 K, 100 kPa	0.75 mPa·s
320.58 K, 100 kPa	0.74 mPa·s
320.88 K, 100 kPa	0.74 mPa·s
321.79 K, 100 kPa	0.73 mPa·s
322.09 K, 100 kPa	0.72 mPa·s
322.39 K, 100 kPa	0.72 mPa·s
323 K, 101.33 kPa	0.6995 mPa·s
323.15 K, 100 kPa	0.7055 mPa·s
323.15 K, 101.3 kPa	0.615 mPa·s
323.15 K, 101.33 kPa	0.7016 mPa·s
